Assay results: PubChem BioAssay AID624417 (National Center for Advancing Translational Sciences (NCATS), 2012)
Hit rate of the full screen: of about 410,000 compounds, about 6,400 (1.6%) were called active. Inconclusive results, whose numbers are uncertain, are shown with a selection of clear calls. The call rests on the fitted dose curve; in most records, active means well fitted inhibition curve with a large enough effect; inconclusive means small, poorly fitted or top-dose-only effect; inactive means no such curve, though single readings can be large or run the other way. Potencies of inconclusive entries are left out as doubtful fits.

The compounds below were run against Glucagon-like peptide 1 receptor (Homo sapiens) (UniProt P43220) (assay: qHTS of GLP-1 Receptor Inverse Agonists (Inhibition Mode)). Settings: HEK293 GLP-1R CRE-luciferase, luminescence, 24 h, GLP-1R form is constitutively active; activity change, negative = inhibition: at 38.3 µM (top of the series) unless noted.
Sequence of UniProt P43220 (P43220 whole entry, looked up): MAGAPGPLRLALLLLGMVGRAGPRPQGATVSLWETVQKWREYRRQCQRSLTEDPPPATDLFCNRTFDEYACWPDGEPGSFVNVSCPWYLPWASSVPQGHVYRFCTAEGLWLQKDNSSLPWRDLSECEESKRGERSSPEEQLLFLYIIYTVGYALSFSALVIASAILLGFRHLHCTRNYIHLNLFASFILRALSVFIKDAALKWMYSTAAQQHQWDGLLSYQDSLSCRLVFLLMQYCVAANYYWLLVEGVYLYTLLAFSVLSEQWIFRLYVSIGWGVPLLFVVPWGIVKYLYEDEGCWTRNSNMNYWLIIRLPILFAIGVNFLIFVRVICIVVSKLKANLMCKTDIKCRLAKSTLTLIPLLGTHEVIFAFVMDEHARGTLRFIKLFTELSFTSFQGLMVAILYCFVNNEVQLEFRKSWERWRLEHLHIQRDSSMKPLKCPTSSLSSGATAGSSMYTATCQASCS
Outline: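 Luminescence readout: a drop in cAMP-driven luciferase signal flags inverse agonism at a constitutively active GLP-1R stably expressed in HEK293. Compound exposure lasted 24 hr at 37 deg C, 5% CO2.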
Further: nearly all actives have a fitted effect of over 55% in size.
On the % scale 0 is the no-effect control and ±100 the full control effect; potency means the concentration at half of the fitted maximal effect; tags describe the fitted curve by direction and shape.

Row | Compound | Potency | activity change, negative = inhibition
1 | CCCCCC(=O)N1CC2(CC(c3cccc(NC(=O)COc4ccc(Cl)cc4)c3)=NO2)C[C@@H]1C(N)=O (stereo partly specified) | inconclusive [inhibitor, single point] | –
2 | COc1ccc(C2CC(c3ccccc3C(F)(F)F)=NN2c2ccc(S(N)(=O)=O)cc2)cc1 (stereo unspecified) | inconclusive [inhibitor, partial curve, poor fit] | –
3 | OCCC1CN(Cc2cc3c(cc2Cl)OCO3)CCN1C1CCCC1 (stereo unspecified) | – | inactive: -21.4%
4 | c1ccc(-c2nc3ccccn3c2NCc2ccc3c(c2)OCO3)cc1 | inconclusive [inhibitor, single point] | –
5 | CC1=C(C(=O)N(C(C)C)C(C)C)CC(CC(=O)NC(c2ccccc2)c2ccccc2)C(=O)N1CCC1=CCCCC1 (stereo unspecified) | inconclusive [inhibitor, single point] | –
6 | CCCC(=O)Nc1nc(-c2ccc(OC)cc2)cs1 | inconclusive [inhibitor, single point] | –
7 | CC(=O)Oc1ccc(NC(=O)C2CCCCC2)c(C(=O)O)c1 | – | inactive: -9.24%
8 | O=C(CSCc1ccco1)Nc1cc(C(F)(F)F)ccc1N1CCOCC1 | – | inactive: 0%
9 | Cc1cccc(OCCNc2ncccc2[N+](=O)[O-])c1 | – | inactive: 2.34%
10 | O=C1C=C(c2ccc3ccccc3c2)C[C@@H](c2ccc(F)cc2)C1 | inconclusive [inhibitor, single point] | –
11 | Cc1cc2ccccc2nc1SCC(=O)NC1CCCCC1 | inconclusive [inhibitor, single point] | –
12 | O=[N+]([O-])c1cccc2ccc(/C=C/c3ccc(Cl)cc3)nc12 | inconclusive [inhibitor, single point] | –
13 | COc1ccc(NC(=S)N(CCN2CCCCC2)Cc2ccco2)cc1 | inconclusive [inhibitor, partial curve, poor fit] | –
14 | Cc1[nH]ccc2c1[nH]c1cc(=O)ccc12 | – | inactive: -29%
15 | Cc1cccc(C)c1OCc1cc(=O)n2c(-c3ccccc3)csc2n1 | inconclusive [inhibitor, single point] | –
16 | O=C(O)C1C2C=CC(C2)C1C(=O)NC1CCS(=O)(=O)C1 (stereo unspecified) | – | inactive: 9.21%
17 | Cc1ccc(C(=O)Nc2ccc(F)cc2)cc1S(=O)(=O)N1CCCCCC1 | inconclusive [inhibitor, partial curve, poor fit] | –
18 | C/C=C/c1ccc(OCCCCOc2ccc(OC)cc2)c(OC)c1 | inconclusive [inhibitor, single point] | –
19 | O=C(NCCCc1nc2ccccc2n1Cc1ccc(F)cc1)C1CCCCC1 | inconclusive [inhibitor, single point] | –
20 | COc1ccc(OC)c(-c2oc3ccccc3c(=O)c2O)c1 | inconclusive [inhibitor, single point] | –
21 | C/C(=N\Nc1ccc(C(=O)O)cc1)c1ccc(Br)cc1 | inconclusive [inhibitor, partial curve, poor fit] | –
22 | O=C(CSC(=S)N1CCCCC1)N1N=CCC1c1ccccc1 (stereo unspecified) | – | inactive: 0%
23 | Cc1c(NC(=O)COC(=O)C(c2ccc(Cl)cc2)C(C)C)c(=O)n(-c2ccccc2)n1C (stereo unspecified) | – | inactive: -13%

Row | Compound | Potency | activity change, negative = inhibition
24 | CCOC(=O)C1CCCN(C(=O)CC(c2ccccc2)c2ccccc2)C1 (stereo unspecified) | inconclusive [inhibitor, partial curve] | –
25 | N#CC1=C(N)Oc2cc(N)ccc2C1c1ccc(Cl)cc1 (stereo unspecified) | inconclusive [inhibitor, single point] | –
26 | O=C(NC1CCCCC1)c1ccc(-c2ccccc2)cc1 | – | inactive: 9.98%
27 | O=C(NCCCNc1ccnc2cc(Cl)ccc12)c1ccccc1F | inconclusive [inhibitor, single point] | –
28 | CCN(C(=O)c1ccc2c(c1)N(Cc1cccc(Cl)c1)C(=O)c1ccccc1S2=O)c1ccccc1 (stereo unspecified) | active: 10 µM | –
29 | O=C(Cc1cccc(C(F)(F)F)c1)NCc1cccc(Cl)c1 | active: 10 µM | –
30 | CCC(=O)N1c2ccccc2CC1C(=O)NCCCN1CCN(c2cc(C)ccc2C)CC1 (stereo unspecified) | – | inactive: -11.4%
31 | COc1ccc(-c2cc3nc(N)cc(=O)n3[nH]2)cc1 | – | inactive: 1.24%
32 | COc1ccc(-c2noc(CCCOc3ccccc3)n2)cc1OC | inconclusive [inhibitor, single point] | –
33 | CN(C)c1ccc(/C=N\Nc2ccccn2)cc1 | inconclusive [inhibitor, single point] | –
34 | CC(C)(C)C(=O)Nc1cc(-c2cccc(Br)c2)nn1-c1ccccc1 | inconclusive [inhibitor, partial curve, poor fit] | –
35 | Cc1ccc(S(=O)(=O)N2CN(Cc3ccco3)c3nc4ccccc4nc32)cc1 | inconclusive [inhibitor, single point] | –
36 | COc1ccc(C(c2nnnn2C(C)(C)C)N2CCN(C/C=C/c3ccccc3)CC2)cc1 (stereo unspecified) | – | inactive: 34%
37 | COCCCNC(=O)c1ccc(Cn2c(=O)c3ccccc3n(CC(N)=O)c2=O)cc1 | inconclusive [inhibitor, single point] | –
38 | CN(C)CCCNC(=O)/C(=N\O)c1ccccc1 | – | inactive: 26.8%
39 | O=C(CN1CCCCCC1)Nc1ccc(Oc2ccccc2)cc1 | inconclusive [inhibitor, partial curve, poor fit] | –
40 | CC1CCCN(Cc2nc(Cc3ccccc3Cl)no2)C1 (stereo unspecified) | active: 10 µM | –
41 | CCOc1ccccc1NC(=O)CN(c1ccc(C)cc1)S(=O)(=O)c1c(C)n[nH]c1C | inconclusive [inhibitor, partial curve, poor fit] | –
42 | O=C(Nc1ccccc1)C1=C(O)CC(c2ccc(Cl)cc2)N2CCN=C12 (stereo unspecified) | inconclusive [inhibitor, single point] | –
43 | C=CCOC(=O)/C(=C\C=C\c1ccccc1)NC(=O)c1ccccc1 | inconclusive [inhibitor, single point] | –
44 | Cn1c(C2=C(O)CN(c3ccccc3)C2=N)nc2ccccc21 | – | inactive: 7.07%
45 | Cc1cc(C)c(C)c(OCCN2CCOCC2)c1 | inconclusive [inhibitor, single point] | –
46 | CCc1ccccc1Nc1nn2c(=O)c3ccc(C(=O)NCc4ccc(C)cc4)cc3nc2s1 | inconclusive [inhibitor, full curve, poor fit] | –
